From patent US12221481B2, “CD19 binding molecules and uses thereof” (Novartis AG, priority 2019, dated 2025)
Marks after values point to notes of the source that are not given here.

Tests used:
T cells [1] = assay: Cytokine release assay with Karpas422 cells (Example 18); format: cell-based, human; settings: E:T 1:1, 48 hours
Procedure: Briefly, huCD19-expressing Nalm6 target cells were harvested and resuspended in RPMI medium with 10% FBS. 20,000 target cells per well were plated in a flat-bottom 96-well plate. Human pan T effector cells were isolated via MACS negative selection from cryopreserved PBMC then added to the plate to obtain a final E:T ratio of 5:1. Co-cultured cells were incubated with serial dilutions of all constructs and controls. After an incubation of 24 hr at 37° C., 5% CO2, the supernatants were harvested by centrifugation at 300×g for 5 min for subsequent analysis.
A multiplexed ELISA was performed according to the manufacturer's instructions using a V-PLEX Proinflammatory Panel 1 Kit (MesoScale Discovery #K15049D).
A cytokine release assay was performed as in Example 10, but with Karpas422 cells at a final E:T ratio of 1:1 and an incubation of 48 hours.

Karpas422 target cells = assay: RTCC against Karpas422, E:T 1:1, 96 hour (Examples 17, 21); format: cell-based, human; settings: two T cell donors
Procedure: (§1) The purified TBMs were compared across multiple donor effector cells. Briefly, huCD19-expressing Nalm6 and Karpas422 target cells were engineered to overexpress firefly luciferase. Cells were harvested and resuspendend in RPMI medium (Invitrogen #11875-093) with 10% FBS. 5,000 target cells per well were plated in a flat-bottom 384-well plate. Human pan T effector cells were isolated via negative selection (Stemcell Technologies #17951) from two donors from cryopreserved PBMCs that were separated from a leukopak (Hemacare #PB001F-1) by Ficoll density gradient centrifugation. Purified T cells were then added to the plate to obtain a final E:T ratio of 3:1, 1:1, 1:3 or 1:5. Co-cultured cells were incubated with serial dilutions of all constructs and controls. For normalization, average maximum luminescence refers to target cells co-incubated with effector cells, but without any test construct. After an incubation of 48, 72 or 96 hr at 37° C., 5% CO2, OneGlo luciferase substrate (Promega #E6120) was added to the plate. Luminescence was measured on an Envision plate reader after a 10 minute incubation. Percent specific lysis was calculated using the following equation: Specific lysis (%)=(1−(sample luminescence/average maximum luminescence))*100
An RTCC assay with huCD19-expressing Karpas422 target cells was performed according to the Materials and Methods described in Example 9, but with a final E:T ratio of 1:1 and a 96 hour incubation.

Nalm6 target cells = assay: RTCC against Nalm6 (Example 22); format: cell-based, human; settings: E:T 1:1, 48 hour
Procedure: as §1
(§2) Nalm6 KO was generated from Nalm6 parental cell line by using CRISPR-CAS9 technology and was confirmed to lack hCD19 expression. Oci-Ly19, Toledo, Nalm6, Nalm6 KO and K562 target cells were engineered to overexpress firefly luciferase. RTCC assays were performed with the different cells lines according to the Materials and Methods described in Example 9, but with a final E:T ratio of 1:1 and a 48 hour incubation.

[2] = tested on: OCI-LY-19 DLBCL subcutaneous tumor
[3] = tested on: OCI-LY-19 diffuse large B-cell lymphoma (DLBCL) tumor; assay: OCI-LY-19 DLBCL subcutaneous tumor model, human PBMC adoptive transfer, NSG mice (Example 28); settings: for Δ Body weight from initial (Mean ± SEM) / Δ Tumor burden from initial (Mean) Day 25 / ΔT/ΔC / Regression: single dose IV; for ΔT/ΔC / Regression: Table 26, Day 25
Oci-Ly19 target cells = assay: RTCC against Oci-Ly19 (Example 22); format: cell-based, human; settings: E:T 1:1, 48 hour
Procedure: as §1, §2

OCI-LY-19 target cells = assay: Re-challenge RTCC assay, OCI-LY-19; format: cell-based, human; settings: E:T 1:1, repeated target cell challenges
Procedure: OCI-LY-19 and Karpas422 target cells stably expressing firefly luciferase were plated in a Costar 6 well plate in T Cell Media (TCM). PBMCs previously isolated and cryopreserved from 2 Leukopak donors were thawed and Pan T cells were isolated (as described earlier). […] The plates were incubated for 4 days for OCI-LY-19 and 5 days for Karpas 422 cells. At the end of incubation, the killing of target cells was determined using the luminescence signal. The absolute T cell counts from each antibody treated condition was also determined. For the next round of rechallenge, it was ensured that the killing of target cells was equivalent across various antibody conditions. […] Additionally, a dose titration RTCC at a E:T of 1:1 and a concentration range of 2 nM-0.000001 nM was set-up using T cells from the different antibody treated conditions with a 4 day incubation used for each cell line. The killing of target cells was determined using the luminescence signal to generate dose response curves. At the end of the challenge, the above process was repeated once more for Karpas 422 and twice more for OCI-LY-19 cells.

T cells [4] = assay: TBM and BBM binding to T cells (flow cytometry); design: species or system human; settings: 33 μg/ml-0.005 μg/ml, on ice 1 hour
Procedure: Peripheral blood mononuclear cells (PBMCs) previously isolated and cryopreserved from 2 Leukopak donors (Hemacare) were thawed and Pan T cells were isolated by negative selection using the Pan T cell Isolation Kit, human (Miltenyi Biotec, Cat #130-096-535) following the manufacturer's protocol. T cells were resuspended in FACS Buffer and 100,000 cells were added to each well of a 96 well round bottom plate. A dilution series of CD3med TSP1, CD3hi TSP1, CD3hi BSP1, and CD3hi TSP1C ranging from 33 μg/ml-0.005 μg/ml was added to cells and incubated on ice for 1 hour. Cells were washed twice, resuspended in 100 μl of anti-human IgG secondary antibody and incubated on ice for another hour. After the incubation, cells were washed twice, resuspended in 100 pI of fixable viability dye and incubated on ice for 30 min. After washing twice again, cells were resuspended in 120 μl of FACS buffer. The cells were then run on BD LSR Fortessa and data was analyzed using FlowJo to determine the MFI of anti-human IgG secondary antibody, which was plotted against antibody concentration.

B1: CD3med TSP1: NEG258-based TBM with CD3med anti-CD3 scFv and CD58 IgV CD2-binding arm (antibody)
heavy: QVQLVQSGAEVKKPGASVKVSCKASGYTFTTYWIQWVRQAPGQRLEWMGAVYPGDADTRYTQKFQGRVTLTADRSASTAYMELSSLRSEDTAVYYCGRDAGLEYYALDYWGQGTLVTVSSASTKGPSVFPLAPSSKSTSGGTAALGCLVKDYFPEPVTVSWNSGALTSGVHTFPAVLQSSGLYSLSSVVTVPSSSLGTQTYICNVNHKPSNTKVDKRVEPKSCGGGGSGGGGSEVQLVESGGGLVQPGGSLKLSCAASGFTFNTYAMNWVRQASGKGLEWVGRIRSKYNNYATYYADSVKDRFTISRDDSKNTAYLQMNSLKTEDTAVYYCVRHGNFGNSYVSWFAHWGQGTLVTVSSGGGGSGGGGSGGGGSGGGGSQAVVTQEPSLTVSPGGTVTLTCGSSTGAVTSSNYANWVQQKPGQAPRGLIGGTNKRAPWTPARFSGSLLGGKAALTLSGAQPEDEAEYYCALWYSNLWVFGGGTKLTVLGGGGSDKTHTCPPCPAPELLGGPSVFLFPPKPKDTLMISRTPEVTCVVVAVSHEDPEVKFNWYVDGVEVHNAKTKPREEQYASTYRVVSVLTVLHQDWLNGKEYKCKVSNKALAAPIEKTISKAKGQPREPQVCTLPPSREEMTKNQVSLSCAVKGFYPSDIAVEWESNGQPENNYKTTPPVLDSDGSFFLVSKLTVDKSRWQQGNVFSCSVMHEALHNHYTQKSLSLSPGK
light: EIVMTQSPATLSVSPGERATLSCRASQDVGTAVAWYQQKPGQAPRLLIYWASTRHTGIPARFSGSGSGTEFTLTISSLQSEDFAVYFCQQYANFPLYTFGQGTKLEIKRTVAAPSVFIFPPSDEQLKSGTASVVCLLNNFYPREAKVQWKVDNALQSGNSQESVTEQDSKDSTYSLSSTLTLSKADYEKHKVYACEVTHQGLSSPVTKSFNRGEC
chain: SQQIYGVVYGNVTFHVPSNVPLKEVLWKKQKDKVAELENSEFRAFSSFKNRVYLDTVSGSLTIYNLTSSDEDEYEMESPNITDTMKFFLYVLESGGGGSDKTHTCPPCPAPELLGGPSVFLFPPKPKDTLMISRTPEVTCVVVAVSHEDPEVKFNWYVDGVEVHNAKTKPREEQYASTYRVVSVLTVLHQDWLNGKEYKCKVSNKALAAPIEKTISKAKGQPREPQVYTLPPCREEMTKNQVSLWCLVKGFYPSDIAVEWESNGQPENNYKTTPPVLDSDGSFFLYSKLTVDKSRWQQGNVFSCSVMHEALHNHYTQKSLSLSPGK
For B1, the “cytokine secretion by T cells (IFN-γ, IL-2, TNF-α)” value (T cells [1]) was “induced cytokine secretion by T cells”, the “cytotoxic activity (specific lysis)” value (Karpas422 target cells) was “show cytotoxic activity” and the “cytotoxic activity (specific lysis)” value (Nalm6 target cells) was “showed cytotoxic activity”. The tumor regression ([2]; 1.0 mg/kg IV weekly, Day 24) was 64.5%, the “Δ Body weight from initial (Mean ± SEM) Day 24” value ([2]; 1.0 mg/kg, QWx3) was −11.30 ± 1.93% and the “Δ Tumor burden from initial (Mean ± SEM) Day 24” value ([2]; 1.0 mg/kg, QWx3) was −215.32 ± 38.48 mm^3. For the same molecule, the Regression ([2]; 1.0 mg/kg, QWx3, Day 24) was 64.3* %, the “treatment associated body weight loss” value ([2]; observed following the first dose only) was “treatment associated body weight loss” and the anti-tumor activity ([3]; 0.003 mg/kg, single IV administration) was “not active”. For the same molecule, the “Δ Body weight from initial (Mean ± SEM)” value ([3]; 0.003 mg/kg) was 4.2 ± 2.1%, the “Δ Tumor burden from initial (Mean) Day 25” value ([3]; 0.003 mg/kg) was 372.94 mm^3 and the anti-tumor activity ([3]; 0.01 mg/kg, single IV administration) was “not active”. For the same molecule, the “Δ Body weight from initial (Mean ± SEM)” value ([3]; 0.01 mg/kg) was 5.7 ± 2.7%, the “Δ Tumor burden from initial (Mean) Day 25” value ([3]; 0.01 mg/kg) was 469.6988 mm^3 and the “% ΔT/ΔC” value ([3]; 0.03 mg/kg, single IV administration) was 7.39%. The “Δ Body weight from initial (Mean ± SEM)” value ([3]; 0.03 mg/kg) was 2.6 ± 1.6%, the “Δ Tumor burden from initial (Mean) Day 25” value ([3]; 0.03 mg/kg) was 60.7375 mm^3 and the tumor regression ([3]; 0.1 mg/kg, single IV administration) was 5.60%. The “Δ Body weight from initial (Mean ± SEM)” value ([3]; 0.1 mg/kg) was 3.3 ± 2.0%, the “Δ Tumor burden from initial (Mean) Day 25” value ([3]; 0.1 mg/kg) was −12.1488 mm^3 and the tumor regression ([3]; 0.3 mg/kg, single IV administration) was 36.33%. For the same molecule, the “Δ Body weight from initial (Mean ± SEM)” value ([3]; 0.3 mg/kg) was 3.54 ± 1.4%, the “Δ Tumor burden from initial (Mean) Day 25” value ([3]; 0.3 mg/kg) was −78.7388 mm^3 and the ΔT/ΔC ([3]; 0.003 mg/kg) was 45.36%. For the same molecule, the ΔT/ΔC ([3]; 0.01 mg/kg) was 57.13%, the ΔT/ΔC ([3]; 0.03 mg/kg) was 7.39% and the Regression ([3]; 0.1 mg/kg) was 5.60* %. The Regression ([3]; 0.3 mg/kg) was 36.33* %, the “antibody associated body weight loss” value ([3]; single IV administration, 0.003-0.3 mg/kg) was “no antibody associated body weight loss” and the “cytotoxic activity (specific lysis)” value (Oci-Ly19 target cells) was “showed cytotoxic activity”. The “retention of killing ability upon repeated challenges” value (OCI-LY-19 target cells) was “next best” and the “binding to T cells (MFI of anti-human IgG secondary antibody)” value (T cells [4]) was “followed by CD3med TSP1”.
